ChEMBL document CHEMBL1156636, “Reductive heme-dependent activation of the n-oxide prodrug AQ4N by nitric oxide synthase” (J Med Chem, 2008)

Assays:
[1] = system: C[N+](C)([O-])CCNc1ccc(NCC[N+](C)(C)[O-])c2c1C(=O)c1c(O)ccc(O)c1C2=O; conditions: Homo sapiens
N=C(N)NCCC[C@H](N)C(=O)O = conditions: Homo sapiens

For “Nitric oxide synthase, inducible (Homo sapiens) (sequence left out)”, the Km [1] was 130 µM and the Km (N=C(N)NCCC[C@H](N)C(=O)O) was 2.8 µM.
